Experimental data from PubChem BioAssay (NCI).
“And” between values parts separate entries of the source, which are not always exact repeats. Equal entries are not always repeated.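 Values below derive from 48-hour exposures of cells grown in 96-well plates, with endpoints linearly interpolated between the two concentrations bracketing the appropriate inhibition level. Abbreviation: GI50, concentration required for 50% inhibition of growth. At the TGI there is no net growth.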 The source made the active and inactive calls.

Key:
Test in all cases: inhibition of tumour cell growth, NCI panel, 48 h
PC-3 prostate = test system: PC-3 prostate
CAKI-1 renal = test system: CAKI-1 renal
SK-MEL-5 melanoma = test system: SK-MEL-5 melanoma
SN12C renal = test system: SN12C renal
HOP-62 NSCLC = test system: HOP-62 NSCLC
UACC-62 melanoma = test system: UACC-62 melanoma
MOLT-4 leukemia = test system: MOLT-4 leukemia
SK-MEL-28 melanoma = test system: SK-MEL-28 melanoma
SW-620 colon = test system: SW-620 colon
HCT-116 colon = test system: HCT-116 colon
MCF7 breast = test system: MCF7 breast
SNB-19 CNS = test system: SNB-19 CNS
UACC-257 melanoma = test system: UACC-257 melanoma
UO-31 renal = test system: UO-31 renal
NCI-H522 lung = test system: NCI-H522 lung
OVCAR-5 ovarian = test system: OVCAR-5 ovarian
RXF 393 renal = test system: RXF 393 renal
TK-10 renal = test system: TK-10 renal
U251 CNS = test system: U251 CNS
SF-295 CNS = test system: SF-295 CNS
MDA-MB-435 = test system: MDA-MB-435
OVCAR-3 ovarian = test system: OVCAR-3 ovarian
A498 renal = test system: A498 renal
786-0 renal = test system: 786-0 renal
SF-268 CNS = test system: SF-268 CNS
ACHN renal = test system: ACHN renal
HCC-2998 colon = test system: HCC-2998 colon
NCI-H226 lung = test system: NCI-H226 lung
HL-60(TB) leukemia = test system: HL-60(TB) leukemia
M14 melanoma = test system: M14 melanoma
A549 NSCLC = test system: A549 NSCLC
K-562 leukemia = test system: K-562 leukemia
SNB-75 CNS = test system: SNB-75 CNS
RPMI-8226 leukemia = test system: RPMI-8226 leukemia
HOP-92 NSCLC = test system: HOP-92 NSCLC
DU-145 prostate = test system: DU-145 prostate
NCI/ADR-RES ovarian = test system: NCI/ADR-RES ovarian

CCCC(=O)Oc1cc2c(c(OC)c1OC)-c1ccc(SC)c(=O)cc1[C@@H](NC(C)=O)CC2
TGI (PC-3 prostate): > 100 µM
TGI (CAKI-1 renal): > 100 µM
TGI (SK-MEL-5 melanoma): 20.1 nM and 49.1 nM
TGI (SN12C renal): > 100 µM
TGI (HOP-62 NSCLC): > 100 µM
TGI (UACC-62 melanoma): > 100 µM
TGI (MOLT-4 leukemia): 16.9 nM
TGI (SK-MEL-28 melanoma): > 100 µM
TGI (SW-620 colon): > 100 µM
TGI (HCT-116 colon): > 100 µM
TGI (MCF7 breast): > 100 µM
TGI (SNB-19 CNS): > 100 µM
TGI (UACC-257 melanoma): > 100 µM
TGI (UO-31 renal): > 100 µM
TGI (NCI-H522 lung): 8.35 nM
GI50 (OVCAR-5 ovarian): > 100 µM
TGI (OVCAR-5 ovarian): > 100 µM
TGI (RXF 393 renal): 7.95 µM
TGI (TK-10 renal): > 100 µM
TGI (U251 CNS): 1260 nM
TGI (SF-295 CNS): 573 nM
TGI (MDA-MB-435): 4.77 nM
TGI (OVCAR-3 ovarian): 6.49 nM and 29.5 nM
TGI (A498 renal): 822 nM
TGI (786-0 renal): > 100 µM
TGI (SF-268 CNS): > 100 µM
TGI (ACHN renal): > 100 µM
TGI (HCC-2998 colon): 316 nM
TGI (NCI-H226 lung): 16.6 nM
TGI (HL-60(TB) leukemia): 7.71 nM
TGI (M14 melanoma): > 100 µM
TGI (A549 NSCLC): > 100 µM
TGI (K-562 leukemia): > 100 µM
TGI (SNB-75 CNS): > 100 µM
TGI (RPMI-8226 leukemia): 13.2 µM
TGI (HOP-92 NSCLC): 945 nM
TGI (DU-145 prostate): > 100 µM
GI50 (NCI/ADR-RES ovarian): inactive
